Measured values from the supplement of paper PMC11417369.
Some of the results follow.

System: PfSIP2 AP2 domain 1 (GST-tagged)
Test: gcPBM binding intensity (ln(normalized median fluorescence intensity)); higher = stronger DNA binding
Method in brief: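 Binding intensity values are the highest Masliner-normalised natural-log median intensity among replicate spots of either probe orientation. The binding step lasted 1 h in 1× PBS with 1% milk, 0.2 mg/ml BSA, 0.5% salmon testes DNA and 0.03% Triton X-100, using GST-tagged P. falciparum DNA-binding domains expressed in E. coli on an Agilent 4 × 180k array of primer-extended double-stranded 36-bp intergenic genomic probes plus negative controls. Alexa488 anti-GST antibody and a 488 nm scan detected bound protein.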

| Sequence | gcPBM binding intensity (ln) |
| --- | --- |
| ATTTTTTTTTTTTTTTTCTTTTTTCTTCTTTTTTTT [CACACA_negctrl_site1223] | 6.63 |
| ATATATATTATAAAATGTACAAATGTTATATAAAAT [XGTACX_site4750] | 7.3 |
| TTTTTTTTTTTTTTATGTACATATATATATTTTATT [XGTACX_site6915] | 7.1 |
| TGTATATATCAATGTACACACATGCGTATGTTCGTT [CACACA_site7654] | 6.91 |
| TATAAAAAAAATTGCACACATATTATACAGGACGAC [CACACA_site701] | 7.96 |
| AAAATATATATAACTTGTACATATACATACGTATAT [XGTACX_site4570] | 6.86 |
| AATATATGGTTCCTTGATATTAAATTCAATTTAATG [CACACA_negctrl_site71] | 6.9 |
| TGTGTATATGTGCAAAGTACAAAAAAGAAATTATTT [XGTACX_site7569] | 7.66 |
| TAAATCTATATCATCACACACACATACATAAATATA [CACACA_site6228] | 7.04 |
| TAGTATTGTAAAAAAAAAAAAGAAAAAAAAAAAAAA [CACACA_negctrl_site977] | 6.76 |
| TGGATGTTAATATAGTGTACATTTATAAGTCAGTAT [XGTACX_site2949] | 7.32 |
| GTGGAAAAAAATAATTGTACACAATAATAAATATAT [XGTACX_site2414] | 6.97 |
| GAAAAAAAATCCAAGATGCACTATTATTACAAAAAT [GTGCAC_site9516] | 9.4 |
| GTCAAAAGTTTTTAAGGTACACTTATTTTATTATAA [XGTACX_site7004] | 7.19 |
| ATGTAATATATGCGGAAATATATTCACAAGACGTCA [CACACA_negctrl_site373] | 6.93 |
| CACTAAACATATACACGTACATGCAACGGATTTTTT [XGTACX_site461] | 7.12 |
| ACCTTTATTGTATGAACACACATAAGCTGATACATC [CACACA_site4028] | 7.4 |
| TATAGATACCTATACACACACACACGGACATATATA [CACACA_site7585] | 7.08 |
| ATATAAAACAACGGGTGTACAAAAAAATAAATAATA [XGTACX_site4094] | 7.14 |
| AAAGAAATGAAATATACACACATACCTATATACATA [CACACA_site7817] | 6.85 |
| TTTTTCTTCTGCATTATGCACACTATAATTCGTTAA [CACACA_site2837] | 7.98 |
| TTTTTAATATATAAAGATAATAATAAATAAAATTCA [CACACA_negctrl_site657] | 6.69 |

| Sequence | gcPBM binding intensity (ln) |
| --- | --- |
| TTAAAATCTTGAAAAGTGCATTATCATTTTGTAACG [GTGCAC_site9447] | 7.83 |
| TATAATGATGATGATAGTACGTATGAGTTCAAAAAA [XGTACX_site3656] | 7.02 |
| TATATATTTATATATGCATGTACATTTTTATTTATT [TGCATGCA_site1048] | 7 |
| CTGAATGTATATATTTGTACATATATATATATATAT [XGTACX_site5557] | 9.99 |
| GGGTATAATAAAAGCACACACAAAGATATAAATATA [CACACA_site3308] | 7.13 |
| AAAAAAAAAAAACACGCATGTACATAAAAATAATCA [TGCATGCA_site142] | 6.97 |
| TTTTTTTTTTTTAATTAACACACATAAATATATATA [CACACA_site9077] | 7.22 |
| TTTTTGATGAAATATTATTTTCCTGACTTGGATTAA [CACACA_negctrl_site148] | 6.65 |
| TGGAGGATAGTTCACAGTACCCAGAAACTCTACGGA [XGTACX_site2560] | 6.58 |
| AACCATAAATAATTATGTACTAAAAAAAATATATAT [XGTACX_site3415] | 7.23 |
| ATAATATATTTATGTTGTACAAGGAAAATTTTGAAA [XGTACX_site3472] | 7.65 |
| GAAATGGAAAAATATACATGCGCATATAAATTAATA [TGCATGCA_site834] | 6.76 |
| ATCATATGTATGCATACACACAAAAAATTATATATA [CACACA_site398] | 7.05 |
| TATAATGATATAACAACACACATGTATGTATTATTA [CACACA_site230] | 6.87 |
| TTATTTATGATATATACACACTAACATTATTTATCC [CACACA_site6720] | 6.95 |
| TCTTATATATGCTTAAATATATTATATTTATTTGAA [CACACA_negctrl_site1757] | 6.84 |
| ATATCAAATTCTGAAACACACAAAATTACACCTCTA [CACACA_site169] | 7.06 |
| TTTTCGATATGCTTTTTTTTTCTACTGTCTTTTTAA [TGCATGCA_negctrl_site54] | 6.63 |
| CAAAAATATTATTATAGTACATAAATAATATATTTT [XGTACX_site6902] | 6.87 |
| TAAAAATAGGAGTGTGTGCACATAAATTATATACTA [GTGCAC_site9405] | 8.55 |
| TTACTTAATAGACACACACACAAAAAAAAAAAAAAA [CACACA_site6572] | 7.15 |
| CACATACATAAATACACACACAAAATAATAAAATAA [CACACA_site5304] | 7.12 |

| Sequence | gcPBM binding intensity (ln) |
| --- | --- |
| TTTTCATTTTTCTTTACACACATATATATATATATA [CACACA_site2236] | 9.3 |
| TATATATATATTTTTTGTACATATTATATAATATAC [XGTACX_site5187] | 8.38 |
| AAAAAAAAAAAAAAAAAAAAACACCCAAAAAAATAT [XGTACX_negctrl_site210] | 8.35 |
| GAAAGACAAATTGTGACACACACAAAAAAAAAAAAA [CACACA_site9241] | 7.07 |
| TCAAATAATTTGTTGACACACACACCCACATACATA [CACACA_site8717] | 7.12 |
| ATATTTTTTACTATTACACACAAGGGATTATTATTT [CACACA_site3915] | 7.35 |
| ACCTTATAAAAAAAAAGTACATATATAAATAATAAA [XGTACX_site4338] | 7.79 |
| AAACAATAAAAGATTACACACATATATAGCATATAT [CACACA_site1698] | 6.69 |
| TATACATAATATATATGTACATATATTCTTTATTTT [XGTACX_site4565] | 7.16 |
| TATTTATGCACGCGTGCACACACATATGAAAAAAGG [CACACA_site9090] | 10.4 |
| AATTGCTAATGGTACGAACACACATATAAAGATGCA [CACACA_site8634] | 7.04 |
| CTTTCATATGTTTTAACACACACGCATATATTATAG [CACACA_site7033] | 7.08 |
| AAGAATGTTAACGTTGCACACAAAAAAAAAGTATAC [CACACA_site8763] | 7.06 |
| ATATAAGTTATTTTATACAAAAAAAAAAAAAAAAAT [CACACA_negctrl_site1190] | 6.89 |
| AAAAAAAAAAAAAATACACACACATATATATATATA [CACACA_site8698] | 9.38 |
| GTAAACAATTATGAACGTACATAAAATAAATGAACA [XGTACX_site7159] | 7.1 |
| TGTCTTTTTAAGTTTTGTACATAAATATATTTCAAA [XGTACX_site427] | 7.27 |
| AGTATACACAGACACACACACACATATATATATATA [CACACA_site8510] | 9.37 |
| TTTTTATGGACTATGGTGCATTATATATAAATGAAA [GTGCAC_site9557] | 10.6 |
| TAATATTATATAAATTGTACTATTTTTTCCTTATTC [XGTACX_site5314] | 6.82 |
| TAATAAATAAATGACACACACACACCCAAAAAAAAA [CACACA_site2623] | 7.04 |
| TTATTAACCTAAATTAGTACATATAATATAAAAAAT [XGTACX_site8661] | 7.26 |

| Sequence | gcPBM binding intensity (ln) |
| --- | --- |
| AGCTATGTATTCTACACACACATACACCCATATATA [CACACA_site5827] | 7.16 |
| TTGAAATGCATGAACACACACAGCTATAAATGCATA [CACACA_site968] | 6.94 |
| AAAATATTATCTAATTGTACTTATATAACTATATAT [XGTACX_site5699] | 7.09 |
| ATACTAAGGAGAAAAGAAAAGTGAATTTATTCTATA [CACACA_negctrl_site1792] | 6.63 |
| AAATTTATGAACCTAGTGCAGAAATTAAAAAGATGA [GTGCAC_site9396] | 7.65 |
| ATTCAATATTTATACACACACACTTTTAATAATTAA [CACACA_site7725] | 7.2 |
| ATATATATAATAAATACACACATTTATATAGATAAA [CACACA_site3254] | 7.39 |
| AAACATTTATCAATGAATCTTTTAATAAGTGTAAAG [XGTACX_negctrl_site80] | 6.79 |
| TCATTCAGTTTTATCACACACAATCAAACATATATA [CACACA_site2742] | 7.17 |
| AATATAAGGATATATACACACATAAATACATACATA [CACACA_site7859] | 6.98 |
| TATTTTTTTAGATATACATGCAAAAACAGAAGAAAT [TGCATGCA_site283] | 7.37 |
| TCAACATTCATTGGAAGTACTCACTCCCATATAATA [XGTACX_site5211] | 6.88 |
| AATATGTCATATATGTGTACATATGCACAGATATTA [XGTACX_site951] | 7.2 |
| TGAACTTTAAACCCTGAACACACACTAATACACCCA [CACACA_site7970] | 7.12 |
| ATAAAAAGAAATCCAATACACACCTTCAAAATGGGT [CACACA_site1622] | 6.92 |
| CATAAATGTCTCACATGTACATATGCATTTTTAAAA [XGTACX_site3194] | 7.11 |
| TATATATAATATTGCACACAAAATTAAAAGTAAATA [CACACA_site19] | 7.05 |
| CAACTCTTATTTAATTATATGAATTAATTTATATGA [CACACA_negctrl_site200] | 6.7 |
| TGCATAAATTTATGCACACATAAAAAAAAAAAAAAA [CACACA_site2923] | 7.88 |
| TTAAATACTAAAAAGTGTACACATACATAAAAAATT [XGTACX_site6261] | 7.32 |
| ATTATGTTAATAATATGTACATATATCTACATATAT [XGTACX_site7978] | 6.93 |
| ATTATTTTGTTTATTACATGCAGGTGTATATTACAG [TGCATGCA_site723] | 7.2 |
